Reference: PubChem BioAssay AID1508624 (National Center for Advancing Translational Sciences (NCATS), 2021)
Hit rate of the full screen: of about 48,000 compounds, about 120 (0.25%) were called active. Inconclusive results, whose numbers are uncertain, are shown with a selection of clear calls. Calls follow the shape of the dose curve; as a rule, active = well fitted activation curve with a large enough effect; inconclusive = small, poorly fitted or top-dose-only effect, or another doubt; inactive = no such curve, though single readings can be large or run the other way. A potency beside an inconclusive call is a rough fit, not a confirmed value.
Potency is read from the fitted curve at half-maximal effect; tags tell the direction and shape of the fitted curve.

Test: Primary qHTS for Identification of Small Molecule Activators of Huntingtin-Antisense Promoter Activity; also: nearly all actives have a fitted effect of over 55% in size
Details: HEK293 HTT-AS promoter firefly luciferase reporter, 24 h; activity change, positive = activation: at 57.5 µM (top of the series), percent change from vehicle, -100% = no light unless noted
Method in brief: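 Luminescence was read after Dual-Glo reagent and a 10 min room-temperature incubation. Values were normalized to vehicle (0% activity) and zero RLU (-100% activity). Reporter HEK293 cells had been exposed to compounds (up to 57.5 uM final) for 24 h.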
In the case of `Cc1ccc(C)c(N2CCN(CCCNC(=O)c3ccc4nc(N5CCC(C)CC5)sc4c3)CC2)c1`, the activity change, positive = activation is reported as inconclusive: -82.6% [activator]. In the case of `Cc1cc(C)cc(-n2c(SCC(=O)Nc3ccc4c(c3)OCO4)nc3c([nH]c4ccccc43)c2=O)c1`, the “activity change, positive = activation” value is reported as inactive: -19.1%. In the case of `Cc1ccc(Nc2ncnc3c2nc2n3CCCC2)cc1F`, the Potency is reported as inconclusive: 1 µM [activator, partial curve, poor fit]. With `CCOC(=O)c1c(NC(=O)COc2ccccc2)sc(C(C)=O)c1C` the “activity change, positive = activation” value was inactive: -13.1%. For `Clc1ccc(-c2cn3cc(Cc4ccccc4)sc3n2)cc1`, the “activity change, positive = activation” value was inactive: 2.5%. In the case of `CC(C)Oc1ccc(NC(=O)c2cc3ccccc3o2)cc1`, the Potency is reported as inconclusive: 1 µM [activator, partial curve, poor fit]. In the case of `CCC(C)NC(=O)c1ccc2c(c1)nc1n2CCCCC1` (centres undefined), the Potency is reported as inconclusive: 5.62 µM [activator, full curve]. In the case of `CC(=O)c1c(C)n(-c2ccc(Cl)cc2)c2ccc(OC(=O)COc3ccccc3)cc12`, the activity change, positive = activation is reported as inconclusive: -29.6% [activator]. With `CC1=C(/C=C/C(C)=C/C=C/C(C)=C/C(=O)Nc2ccc(O)cc2)C(C)(C)CCC1` the “activity change, positive = activation” value was inactive: -27.1%. With `Cc1cc(N2CCN(C)CC2)nc2ccc(NC(=O)Nc3ccc(F)cc3F)cc12` the Potency was inconclusive: 7.08 µM [activator, partial curve]. In the case of `Cc1ccc(S(=O)(=O)N2CCCC2C(=O)Nc2ccc(Br)cc2)cc1` (centres undefined), the “activity change, positive = activation” value is reported as inactive: -50.4%. With `O=C(Nc1ccc(Cl)c(Cl)c1)N(Cc1c[nH]c2ccccc12)C1CCCCC1` the Potency was inconclusive: 8.91 µM [activator, partial curve]. With `COc1ccccc1C(=O)Nc1nnc2n1CCS2` the Potency was inconclusive: 14.1 µM [activator, partial curve, poor fit]. With `CCN1CCN(c2ncnc3c2cnn3-c2cccc(C)c2)CC1` the Potency was inconclusive: 8.91 µM [activator, partial curve]. With `CN(C)c1ccc(CNC(=O)C2COc3ccccc3C2)cc1` (centres undefined) the Potency was inconclusive: 39.8 µM [activator, single point]. With `O=C(CSc1ncccc1C(=O)Oc1ccccc1Cl)Nc1ccccc1Cl` the “activity change, positive = activation” value was inactive: 7.24%. For `CCC(C)NC(=O)Cn1c(=O)n(Cc2ccc(C(=O)NCc3ccc(C)cc3)cc2)c(=O)c2ccccc21` (centres undefined), the “activity change, positive = activation” value was inactive: -15.9%. In the case of `Nc1ccc(C(=O)Oc2ccccc2)c(O)c1`, the Potency is reported as inconclusive: 31.6 µM [activator, single point]. For `Cc1cccc(C)c1NC(=O)CS(=O)(=O)c1nc(-c2ccc(Cl)cc2)cn1-c1ccccc1`, the Potency was inconclusive: 7.08 µM [activator, single point]. For `Cc1ccccc1C(=O)Nc1ccc2nc(N3CCCCC3)cc(C)c2c1`, the Potency was inconclusive: 12.6 µM [activator, partial curve, poor fit]. In the case of `COC(=O)c1c(-c2cccs2)csc1NC(=O)c1ccc(C)cc1`, the Potency is reported as inconclusive: 4.47 µM [activator, full curve]. With `CCc1ccc(Sc2cc(C(=O)NCCCN3CCC(C)CC3)c3ccccc3n2)cc1` the “activity change, positive = activation” value was inactive: -18.8%. With `COc1cccc(NC(=O)N(Cc2cn(C)c3ccccc23)C2CCCCCC2)c1` the “activity change, positive = activation” value was inactive: -30.5%. In the case of `Cc1ccc(Cl)cc1NC(=O)CC1Sc2ccccc2NC1=O` (centres undefined), the activity change, positive = activation is reported as inconclusive: 53% [activator]. For `Cc1cc(C)cc(NC(c2nnc(-c3cccc(F)c3)o2)c2ccc(F)cc2Cl)c1` (centres undefined), the activity change, positive = activation was inconclusive: -3.83% [activator]. With `Nc1ncnc2nc(-c3ccc(N4CCOCC4)nc3)cc(-c3cccc(Br)c3)c12` the “activity change, positive = activation” value was inactive: -35.3%. For `COc1ccc(-c2nc(C)c(CCNS(=O)(=O)c3ccc(F)cc3)s2)cc1OC`, the “activity change, positive = activation” value was inactive: -13.9%. With `O=C(Cn1cccc1C(=O)c1ccccc1)NCc1ccccc1Cl` the Potency was inconclusive: 12.6 µM [activator, partial curve]. With `COc1ccc(OC)c(CNC(=O)c2ccc(NC(=O)c3nsc4ccccc34)cc2)c1` the Potency was inconclusive: 0.562 µM [activator, full curve, poor fit]. In the case of `Cc1ccccc1OCC(=O)Nc1ccc2nc(SCC(N)=O)sc2c1`, the activity change, positive = activation is reported as inconclusive: -27.2% [activator]. With `CCCCOC(=O)c1ccc(NC(=O)c2csnn2)cc1` the Potency was inconclusive: 5.62 µM [activator, partial curve, poor fit]. With `CCOC(=O)c1cccc(NC(=O)c2ccc3nc(CCc4ccccc4)oc3c2)c1` the Potency was inconclusive: 1.26 µM [activator, full curve]. In the case of `O=C(OCc1cc(=O)n2nc(C3CC3)sc2n1)c1ccccc1Cl`, the Potency is reported as inconclusive: 2.24 µM [activator, full curve]. For `COc1ccc(NC(=O)c2csnn2)cc1`, the Potency was inconclusive: 14.1 µM [activator, partial curve, poor fit]. With `COc1ccc(N(Cc2ccccc2)C(=O)c2nc(SC)ncc2Cl)cc1` the “activity change, positive = activation” value was inactive: -16.7%. In the case of `Cc1cc(F)ccc1NC(=O)c1sc2nc(-c3cccs3)ccc2c1N`, the “activity change, positive = activation” value is reported as inactive: -11.6%. For `CC(C)OCCCN1C(=O)c2[nH]nc(-c3ccccc3O)c2C1c1ccc(OCc2ccccc2)cc1` (centres undefined), the “activity change, positive = activation” value was inactive: -57.2%. In the case of `Cc1cccc2sc(N3CCN(C(=O)c4ccco4)CC3)nc12`, the Potency is reported as inconclusive: 7.08 µM [activator, full curve, poor fit]. With `COc1ccc(CCNc2oc(COc3ccc(Cl)cc3)nc2C#N)cc1OC` the “activity change, positive = activation” value was inactive: -31.3%. For `CCc1ccc2nc(N3CCN(C(=O)c4ccco4)CC3)sc2c1`, the Potency was inconclusive: 3.16 µM [activator, partial curve, poor fit]. With `Cc1ccc(-n2ncc3c(NCCC4=CCCCC4)ncnc32)cc1C` the Potency was inconclusive: 1.78 µM [activator, partial curve, poor fit]. In the case of `CCC(C)NC(=O)c1sc2nc(C)c(C(=O)Nc3ccc(Cl)cc3)c(-c3ccc(Br)cc3)c2c1N` (centres undefined), the “activity change, positive = activation” value is reported as inactive: -30.1%. In the case of `COc1ccc2c(c1)CC[C@H]1[C@@H]2CC[C@]2(C)[C@@H](NCCCCCCN3C(=O)C=CC3=O)CC[C@H]12`, the Potency is reported as inconclusive: 6.85 µM [activator, full curve]. For `CCc1nc2ccc(C(=O)NCc3ccc(SC)cc3)cc2nc1CC`, the Potency was inconclusive: 15.8 µM [activator, partial curve, poor fit]. With `Cc1ccc(S(=O)(=O)n2nc(-c3ccco3)nc2NCc2ccccc2Cl)cc1` the Potency was inconclusive: 12.6 µM [activator, partial curve]. With `CCn1c(/C(C#N)=C/c2ccccc2Cl)nc2ccccc21` the Potency was inconclusive: 39.8 µM [activator, single point]. With `Cc1ccc(CN(Cc2cccn2-c2nnc(N3CCCC3=O)s2)C(=O)Nc2ccccc2C(F)(F)F)cc1` the “activity change, positive = activation” value was inactive: -59%. For `CCCCN(CC)CCCNC(=O)Cn1ncc2c3ccccc3n(Cc3ccccc3F)c2c1=O`, the Potency was inconclusive: 17.8 µM [activator, partial curve, poor fit]. For `Cc1ccc(-c2n[nH]c3c2C(c2cccc(O)c2)N(c2ccc(C(=O)O)cc2)C3=O)cc1` (centres undefined), the “activity change, positive = activation” value was inactive: 10.5%. In the case of `O=C(Oc1ccccc1)c1cccc(C(=O)Oc2ccccc2)c1`, the Potency is reported as inconclusive: 1 µM [activator, full curve, poor fit]. In the case of `COC(=O)[C@H]1[C@H]2C[C@@H]3c4[nH]c5cc(OC)ccc5c4CCN3C[C@H]2C[C@@H](OC(=O)/C=C/c2ccc(O)c(OC)c2)[C@@H]1OC`, the “activity change, positive = activation” value is reported as inactive: -40.4%. With `CC(=O)c1c(C)oc2c(Br)cc(NS(=O)(=O)c3ccc(Br)cc3)cc12` the “activity change, positive = activation” value was inactive: -9.22%. With `CCc1ccccc1NC(c1nnc(-c2cccc(F)c2)o1)c1ccc(F)cc1Cl` (centres undefined) the activity change, positive = activation was inconclusive: 26.6% [activator]. For `CCCn1c(=O)sc2cc(NC(=O)COc3ccc(Cl)cc3)ccc21`, the “activity change, positive = activation” value was inactive: -27.2%. In the case of `COc1ccc(C)cc1NC(=O)c1ccc2c(SCC(=O)O)c3c(nc2c1)CCCC3`, the activity change, positive = activation is reported as inconclusive: -61.6% [activator]. For `COc1ccc(NC(=O)c2sc3nc[nH]c(=O)c3c2C)cc1Cl`, the Potency was inconclusive: 11.2 µM [activator, partial curve]. In the case of `COc1cc(CN(C(=O)COc2ccc(C)cc2)c2ccccn2)cc(OC)c1OC`, the “activity change, positive = activation” value is reported as inactive: -29.9%. In the case of `COc1ccc(-c2nc(CSCC(=O)N3CCN(c4cccc(C)c4C)CC3)c(C)o2)cc1OC`, the “activity change, positive = activation” value is reported as inactive: -60.8%. With `Cn1c(=O)n(C)c2cc(NS(=O)(=O)c3ccc(F)cc3)ccc21` the Potency was inconclusive: 3.98 µM [activator, partial curve, poor fit]. With `COc1cc(/C=C/c2nc(C#N)c(N3CCCCCC3)o2)cc(OC)c1OC` the “activity change, positive = activation” value was inactive: -27.1%. With `CCc1cccc(NC(=O)Cn2c(=O)n(CC(=O)NCCc3ccccc3)c(=O)c3ccccc32)c1` the “activity change, positive = activation” value was inactive: -31%. In the case of `CC(=O)c1ccc(NC(=O)c2ccc(-c3ccc(Cl)cc3)o2)cc1`, the Potency is reported as inconclusive: 3.98 µM [activator, partial curve, poor fit]. In the case of `CCN(CC)CCNC(=O)c1ccc2nc(CCc3ccccc3)oc2c1`, the Potency is reported as inconclusive: 15.8 µM [activator, partial curve]. With `COc1ccccc1-c1nnc(SCC(=O)Nc2ccccc2F)o1` the Potency was inconclusive: 3.55 µM [activator, partial curve]. With `Cc1nc(Nc2n[nH]c3c2CN(C(=O)N[C@H](CN(C)C)c2ccccc2)C3(C)C)c2sccc2n1` the Potency was inconclusive: 43.2 µM [activator, single point]. For `Cc1ccccc1C(=O)N1CCC(c2nc3ccccc3s2)CC1`, the “activity change, positive = activation” value was inactive: -19%. With `Cn1nc(C(=O)Nc2cc(F)ccc2F)c2c1-c1ccccc1SC2` the Potency was inconclusive: 1.41 µM [activator, full curve, poor fit]. With `CC1CCCCN1c1csc2ccc(F)cc2c1=O` (centres undefined) the Potency was inconclusive: 28.2 µM [activator, partial curve, poor fit]. With `Cc1ccccc1CNC(=O)c1ccc(NC(=O)c2nsc3ccccc23)cc1` the Potency was inconclusive: 0.708 µM [activator, full curve, poor fit].
